{
  "sequences": {"note": "By UniProt entry, the sequences of proteins in these tests, tags left out. Where a name states a change or a piece, a line headed by the entry shows the natural chain unless it says otherwise. Residues count along the entry.", "UniProt Q80VM7": "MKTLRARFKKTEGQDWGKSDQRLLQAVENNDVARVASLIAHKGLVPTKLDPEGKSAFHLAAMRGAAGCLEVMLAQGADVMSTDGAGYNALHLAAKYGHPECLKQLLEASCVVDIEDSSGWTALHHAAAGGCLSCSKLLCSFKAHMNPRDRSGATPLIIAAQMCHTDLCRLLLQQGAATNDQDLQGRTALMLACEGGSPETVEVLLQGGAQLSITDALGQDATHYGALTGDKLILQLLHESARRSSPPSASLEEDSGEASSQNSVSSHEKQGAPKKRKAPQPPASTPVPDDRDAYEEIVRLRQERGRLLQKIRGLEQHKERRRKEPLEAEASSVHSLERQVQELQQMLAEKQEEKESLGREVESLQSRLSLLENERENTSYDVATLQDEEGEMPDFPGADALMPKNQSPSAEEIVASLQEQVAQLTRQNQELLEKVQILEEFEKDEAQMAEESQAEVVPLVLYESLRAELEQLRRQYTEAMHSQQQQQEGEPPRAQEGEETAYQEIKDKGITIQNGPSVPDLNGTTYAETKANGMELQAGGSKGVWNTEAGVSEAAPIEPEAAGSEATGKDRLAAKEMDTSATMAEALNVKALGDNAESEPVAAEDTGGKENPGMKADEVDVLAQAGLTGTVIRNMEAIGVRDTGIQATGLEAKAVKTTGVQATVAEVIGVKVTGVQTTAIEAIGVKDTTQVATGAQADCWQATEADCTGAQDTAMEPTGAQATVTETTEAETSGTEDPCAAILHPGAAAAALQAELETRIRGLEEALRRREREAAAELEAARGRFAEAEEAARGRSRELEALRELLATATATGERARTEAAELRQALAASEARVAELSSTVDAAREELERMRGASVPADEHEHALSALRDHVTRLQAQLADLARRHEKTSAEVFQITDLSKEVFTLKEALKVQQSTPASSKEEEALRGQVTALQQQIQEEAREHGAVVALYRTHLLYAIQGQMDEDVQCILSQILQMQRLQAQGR", "ANKRD24 Trunc6-HA": "residues 489-985 of Q80VM7"},
  "source": "paper PMC8859912",
  "molecules": {"B1": {"name": "TRIOBP-4-GFP (protein, UniProt Q99KW3-5 1-980)", "chain": "MSMEQDTRALLPTQGTAWATASAPVARLQGPQGDSHQACSQEPHSPSSAEAPYCDLPRCPPALQNPLRTTTCVGQSVHSLGLGLGQEPQRVWSPTTALPAEGPAAAPKNRHQDSEGIPYLEGLARSSCTDDNDNKDEDEDPNSNTSSSQDSNTPHDTSNSSSVDWDTTERPGVVPSRNRLTEMIPRRPQEGLRADSARKATRSPARGDTAGQRKENSGSGGQSAGQHWAKLRSESGYFSLERQRSGQTQASSGTPPSGPRGTTQASSAQRDVFQAAPAQEAPQTSSLPRNTQRDTQRSTPRTSSPSRVSQRDTPRVMSTQRKNTPLSSPLRATPETLKISAPEDGTHVTPSPCVQDSSLNRTSQRDSSRTPCIQWDNPRASSPNRTTQRDNPRTPCTQRDNPRASSPNRTTQRDNPRTPCTQRDNPRASSPNRTTQRDNPRTPCAQRDNPRAASPNRSTQRDSPRTPCAQRDNPRASSPNRTAQRDNPRTPCAQRDNPRTSCTSQNTPRTPSTQADKTTASCSKWEHLRSACTQRDNPRTFSQGCTQKDNPGPPSPRRATQGSNSRNPSPHRTNKDIPWASFPLRPTQSDSPRTSSPSRTKQNQVPWASISLRPTQGDKPQTSAPTRLAHNDPPQQYSPSLATTSSSSHNPGHSSASRTSSPLHAAPRGAPQTSLESSQPPCTVCIGHRDAPRASSPPRYFQYDPFPFFPDPRSSESESPHHEPPYMPPAVCIGHRDAPRATSPPRHTQFDPFPFLPDTSDADNESPQHDPPQFPPPVCIGYRDAPRASSPPRQFPEPSFFQDLPRASTESLVPSTDSMHEPPHIPTPVCIGHRDAPSFSSPPRQAPEPSLFFQDPPGTSMESLAPSIDSLHGCPLLPPQVCIGHRDAPRASSPPRHPPSDIGLLAPSPPPGSSGSRGSAPPGETRHNLEREEYTMLADLPPPRRLAQRGPEPQAQGSNEGRTRSPGRAEVERLFGQERR"}},
  "key": {"ANKRD24-HA (mouse)": {"biological_target": "ANKRD24-HA (mouse) (UniProt Q80VM7)", "experiment": "co-IP; HEK293 cells transfected with both constructs; lysis in 50 mM Hepes, 150 mM NaCl, 1% Triton X-100, 1 mM EDTA, protease inhibitors; immunoprecipitation with anti-HA agarose beads; immunoblot"}, "[1]": {"biological_target": "ANKRD24 Trunc6-HA (mouse) (UniProt Q80VM7)", "experiment": "co-IP; HEK293 cells transfected with both constructs; lysis in 50 mM Hepes, 150 mM NaCl, 1% Triton X-100, 1 mM EDTA, protease inhibitors; immunoprecipitation with anti-HA agarose beads; immunoblot"}, "Myc–TRIOBP-1": {"biological_target": "T1, Myc–TRIOBP-1 (UniProt Q99KW3)", "T1 sequence": "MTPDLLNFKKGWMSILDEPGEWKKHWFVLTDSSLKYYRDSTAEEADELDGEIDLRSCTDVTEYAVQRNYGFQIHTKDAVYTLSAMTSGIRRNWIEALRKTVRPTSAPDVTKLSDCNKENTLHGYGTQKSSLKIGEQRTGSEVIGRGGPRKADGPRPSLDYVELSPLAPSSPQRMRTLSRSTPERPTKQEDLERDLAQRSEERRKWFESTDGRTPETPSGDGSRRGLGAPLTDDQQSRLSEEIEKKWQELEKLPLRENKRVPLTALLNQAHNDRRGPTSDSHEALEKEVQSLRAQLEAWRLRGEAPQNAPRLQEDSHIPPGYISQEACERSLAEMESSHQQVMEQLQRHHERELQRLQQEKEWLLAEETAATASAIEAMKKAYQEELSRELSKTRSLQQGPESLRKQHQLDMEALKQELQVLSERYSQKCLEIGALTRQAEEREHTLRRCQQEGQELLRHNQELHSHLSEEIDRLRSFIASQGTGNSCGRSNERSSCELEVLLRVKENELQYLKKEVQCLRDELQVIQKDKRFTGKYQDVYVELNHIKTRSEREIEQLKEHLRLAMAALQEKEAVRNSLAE", "experiment": "co-IP; HEK293 cells transfected with both constructs; immunoprecipitation with anti-Myc, co-IP detected with anti-HA"}, "Myc–TRIOBP-5": {"biological_target": "Myc–TRIOBP-5 (UniProt Q99KW3)", "experiment": "co-IP; HEK293 cells transfected with both constructs; immunoprecipitation with anti-Myc, co-IP detected with anti-HA"}, "Myc–TRIOBP-4": {"biological_target": "T2, Myc–TRIOBP-4 (UniProt Q99KW3)", "T2 sequence": "B1 chain", "experiment": "co-IP; HEK293 cells transfected with both constructs; immunoprecipitation with anti-Myc, co-IP detected with anti-HA"}},
  "note": "No constants are given. Whether binding was seen depends on the method and setting. Binding seen in cells or lysates may run through a third protein. Some binding calls cover weakened binding; strength is not graded here. For part of these data: Where a sequence is shown, tags or fusion partners need not be part of it.",
  "data": [
    {"molecule": "ANKRD24-GFP (from UniProt Q80VM7 1-985)", "values": [
      {"measurement": "binding", "setting": "ANKRD24-HA (mouse)", "result": "binds"},
      {"measurement": "binding", "setting": "[1]", "result": "binds"}
    ]},
    {"molecule": "ANKRD24-HA (from UniProt Q80VM7 1-985)", "values": [
      {"measurement": "binding", "setting": "Myc–TRIOBP-1", "result": "binds"},
      {"measurement": "binding", "setting": "Myc–TRIOBP-5", "result": "binds"},
      {"measurement": "binding", "setting": "Myc–TRIOBP-4", "result": "no binding"}
    ]},
    {"molecule": "B1", "values": [
      {"measurement": "binding", "setting": "ANKRD24-HA (mouse)", "result": "no binding"}
    ]}
  ]
}
